# The other results are listed elsewhere or left out. At the low end of the ranking the order means little. Measured with an extract: partners may take part in the binding.
# Target: T1, HNF4alpha8 (COS-7 nuclear extract) (UniProt P41235-5)
# T1 sequence: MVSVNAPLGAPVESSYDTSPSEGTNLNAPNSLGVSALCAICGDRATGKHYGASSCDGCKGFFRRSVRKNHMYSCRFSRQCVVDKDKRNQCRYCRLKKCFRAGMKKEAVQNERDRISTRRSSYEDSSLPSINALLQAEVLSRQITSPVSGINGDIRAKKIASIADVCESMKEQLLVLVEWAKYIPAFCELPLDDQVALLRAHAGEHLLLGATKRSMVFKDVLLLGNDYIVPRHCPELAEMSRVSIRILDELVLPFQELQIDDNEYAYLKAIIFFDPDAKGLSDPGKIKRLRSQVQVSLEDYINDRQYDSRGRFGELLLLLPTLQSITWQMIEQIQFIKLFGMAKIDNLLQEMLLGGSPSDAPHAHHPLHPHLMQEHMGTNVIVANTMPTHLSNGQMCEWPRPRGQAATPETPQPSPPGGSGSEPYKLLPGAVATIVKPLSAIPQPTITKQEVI
# Assay: protein-binding microarray
# Conditions: COS-7 nuclear extract on double-stranded Agilent 4x180k PBM; binding buffer, salt, pH and temperature not given; high values mean tight binding; double strand, one strand shown; sequences stand for … in …GCCTAGGGAGATTAGAGTATCGGTCGA
row,Sequence,binding signal (log2 normalized intensity)
1,GGGGAAATGACCTTTGTCCAGCTGTGCCGA,7.01
2,ACAGCCCTGACATTCTTGAGCTGCTAAACC,-1.22
3,TCTGGCTTGGCCCCCGGACCCAAAGTAAAC,4.18
4,GACCCTTATCAGCCTAGACAAGGCACCAAA,-1.42
5,CTTAAGTTGTACCTGACTAAAACCTGCTGC,-1.41
6,ACATTCTGGAATGATACGCCGGCCAATCCG,-1.35
7,CTCCATCTCCTCCACCAGCTTGCTGCAGAT,-1.41
8,TAACATCTAACAGCTGATGAGGCACCAACA,-1.26
9,CTGGTCCTCAGGCCTTTGGACCCAGACTGA,5.32
10,TGATGCCTGACTCAAGAAAGGATCTCACCC,-1.27
11,CTTTTGGGATCAGCAATGCTCAGCCCACCT,-1.11
12,GTTTACTAAAGGAAGGGAGGTGAGTGCTAG,-1.25
13,TCAGCCTTGGGGCCATTCCAGTTTTGGAGA,-0.552
14,CCCTCGACGCGCCGGCGCAGCCGCGCTCCG,-1.23
15,GGTTCTTCCACGACTCCCCCGCTCACCCCT,5.08
16,CCGCGACAAGCGTCGCTGAGTGGAGGCCCA,-1.04
17,CCTTGGACTCCTGGACTCAAGGAATCCTCC,3.36
18,GAACTGTCGCAGAAAACACAGAGATCTGAT,-1.43
19,GCTTATCACTGGTGATGTGAACCTCGATCC,3.96
20,CTTTAGTCAGAGATTTCTTTACCATACCAG,-0.974
21,TCTAAGACCCATCCCTCAGGGTCCATATCC,3.79
22,TTATGCTTGCAGGTGTCAGGGGTCAATGTG,5.14
23,AATAACTGCTTTGTGGCATCAGGGTCCACA,3.07
24,AGTCCAAAGTCTGCAGGGTAGGCAGACAGG,1.66

row,Sequence,binding signal (log2 normalized intensity)
1,GTGTTCACAGGTGACCTCTGGCCACTGCAG,3.51
2,AAACCTTTGACCAATTGACCCTATCCACAT,3.86
3,TCAATACTCCACAAGACCACAAGGTGGCGA,-1.51
4,AATAAATCAAGATCACTGCCTTGGAGGCAC,-1.36
5,AGTTTGGTTTAAAGTTCAAGTCATAACTGG,2.53
6,AGCAGGTTGTACCTTGACCCAAGAAATAAA,4.67
7,AGGAGATTTGGCTTTGAATTCCACTTCTAC,-0.378
8,CAGTGGGGACGCCTTCCCCTGCCACTTTCA,-1.25
9,GTAAACTGGCCAGAAGGTCAGAGATCAGGT,2.47
10,GTGAGCATGGCTGTGTTCCAATAAACTTCA,-0.863
11,TTGCTCTGCTTAAACCTTTCAAGGGATTCC,-0.439
12,TGCCACGCAATGCATAGCAGAAACATAGAA,-1.35
13,CTGCCAAGACACAGAGAAAAAGAAGGTTGG,-1.21
14,GATCAAGATACAGGTCAGACCCTGGAATTC,1.33
15,GCAAGAAGAAGGTGGACATCGTGGTTGCAA,-0.156
16,TCTCTCTGGCCTGTGGGGAGGTTATCTCGG,1.48
17,CCATCCACGGGTCCATGATTGCTGTCTACT,-0.391
18,CCTCAAATACTCTGAGTAAACACAGACTTT,1.31
19,ACTCCTCTGTACAGCTCTTGTGCTCTGGAC,1.27
20,GCCAAACTCACAGCTTTTATGTCAAACCAC,-1.32
21,GCTGGAACTTGCTTCCTTATCTATATTTGC,-0.158
22,GCAAGGACGTGACCTTTATGGGAAAAAAAA,2.16
23,GCTACTGACCAGATGTTATTACTTAATGCT,-1.37
24,GATAGAGAAAGAAAAAGTACACACCTGCAA,-1.35

row,Sequence,binding signal (log2 normalized intensity)
1,CTCCTTTTGTGAGAGGTCAATGTCCAGTTC,7.01
2,AGGTATTGCCCAGTATTGATGTGAGGGTAG,0.794
3,TCTCAAAAGTTTTTCCCTTCTGTTAGAATG,0.558
4,CACCCCAGTGTGTTGCATGCCACAGCGCCC,1.05
5,AGCACTGGAATGTCTCTGGTTGAAGGGGAG,-1.25
6,TAGTTAGAGTCACTGATAAGTCTGCTTGCC,-0.858
7,AGGTTTGGCTGAGAGGGATAAAAGGGGAAA,-1.28
8,CTCCCTTTGATGCGGTCAGAGTTCATTTGG,4.02
9,TGTGGACTTTTTCCTGAGGGCAGGAGGAGC,1.03
10,TGACCTTGCAGTGGCAAGGCAAAAGAGACA,0.892
11,GTTAAACATTCAGATTCCTGAGCCCAGATC,-1.43
12,GAGAAAACTCCCTCAGAGATGTTTAGTGAG,-1.08
13,CACAGCTCAGATCACAAAAGATGGAACAAG,-1.31
14,CCTGATGAAGTAAATGCAGTTTGTCAAGTG,0.623
15,CTCTGGCCGGAGGGGAGGTTATCTCGGGGC,-1.02
16,CTCTCGGGCCAGCTGTACAAATAAAGGATG,-1.38
17,TGATTATAAACCTGCCTACATCAAGAGGAT,-1.13
18,TGAGCCTCCTCCCTCTCTCTCTTAAGAACG,0.386
19,AACTCCCTCAGAGATGTTTAGTGAGCTGTC,-0.195
20,CATCTTCACGCAATACTAGCAATAACCACA,-1.42
21,GCATTTTTAAAATGTTTCAAAGTTTTTCCC,0.728
22,TTCTATCCCCTTATCTAAATGGAGTTACTG,0.966
23,ATAAGGTAACAGGCCAAAGGGCAAGAACAA,3.1
24,GCACACACCAAAGCCCAAGGGATCGTCCAA,-1.33

row,Sequence,binding signal (log2 normalized intensity)
1,CAGACCCAAAGGTTAAGGAAACAAGGGTAC,0.829
2,GAGGGAGAATAAGGGTTCATCTGACTGGAA,0.363
3,TGACCGTTCTCTCCGGGTAAAGGTGAAGGC,1.23
4,TGAGATTACGTAAGTGAAAGTACACAGTGC,1.12
5,TGGACCAAGCTCTAGCATCCCTCTCTTGCT,-1.35
6,CCAGGACCTTTGCTCATGTCCTCTTGCTTC,2.32
7,GAACGCTGCGCATACCATATGCATTCCTGC,-1.3
8,ACTGGTTCCTGCACCCGGGCAGCCTGTGGC,-1.29
9,AATCAAACTCTCTGTGGATGTATGTCCAGA,1.68
10,AAGTAGAATGAAAGCGGCTCAGGAAACAGC,-1.3
11,ATACTATTCATCCTCCAAAACCCAGTTCAT,3.23
12,AGATGATAAGCCCTGAGTAGTTCTTCTGGT,0.113
13,AGAGCATTTCAAACCTTTGCCCCACTCTCC,4.38
14,TCTTATTTACCGAAATGTGGGTGAGGCTGT,1.67
15,AGAACTTCTCATCTTATCTAGTTTCCTAGC,-1.01
16,CCAACCCAACTAGAATGGAACTGAAGGCAG,-1.4
17,AGGCTGAGGCAGGATGACTGCTTGAGTCCA,1.35
18,GAAAGCCTGTTTGCTTCTGCTGTTTGTTTC,1.53
19,ATCCTTATGGTCTCTTCCAAAGCTGAAATG,0.826
20,AGCAGCCTCAGTGGCTCACAAATGGAGTTT,1.92
21,GATTCCACCTTAGAGGGACGAAGGTCACTA,4.7

# Source: publication PMC10726135
